Results taken from patent US20230277682A1 (priority 2022, published 2023).

B1: 10985-12b (conjugate)
heavy: EVQLVESGGGLVQPGRSLRLSCAASGFTFDDYAMHWVRQAPGKGLEWVSGISWNRGSIGYADSVKGRFTISRDNAKNSLYLQMSSLRAEDTALYYCAKDGERWDSVVVPSARNGMDVWGQGTTVTVSS[human IgG1 constant region omitted here]
light: QSVLTQPPSVSGAPGQRVTISCTGSSSNIGAGYDVHWYQQLPGTAPKLLIYGNSNRPSGVPDRFSGSKSGTSASLAITGLQAEDEADYYCQSYDSSLSGSYVFGTGTKVTVLGQPKAAPSVTLFPPSSEELQANKATLVCLISDFYPGAVTVAWKADSSPVKAGVETTTPSKQSNNKYAASSYLSLTPEQWKSHRSYSCQVTHEGSTVEKTVAPTECS
B2: 10985-HC-Cterm-LLQGA-10b (conjugate)
heavy: EVQLVESGGGLVQPGRSLRLSCAASGFTFDDYAMHWVRQAPGKGLEWVSGISWNRGSIGYADSVKGRFTISRDNAKNSLYLQMSSLRAEDTALYYCAKDGERWDSVVVPSARNGMDVWGQGTTVTVSS[human IgG1 constant region and a few adjoining residues omitted here]
light: QSVLTQPPSVSGAPGQRVTISCTGSSSNIGAGYDVHWYQQLPGTAPKLLIYGNSNRPSGVPDRFSGSKSGTSASLAITGLQAEDEADYYCQSYDSSLSGSYVFGTGTKVTVLGQPKAAPSVTLFPPSSEELQANKATLVCLISDFYPGAVTVAWKADSSPVKAGVETTTPSKQSNNKYAASSYLSLTPEQWKSHRSYSCQVTHEGSTVEKTVAPTECS
B3: 4A8-HC-Cterm-LLQGA-1 Ob (conjugate)
heavy: EVQLVESGAEVKKPGASVKVSCKVSGYTLTELSMHWVRQAPGKGLEWMGGFDPEDGETMYAQKFQGRVTMTEDTSTDTAYMELSSLRSEDTAVYYCATSTAVAGTPDLFDYYYGMDVWGQGTTVTVSS[human IgG1 constant region and a few adjoining residues omitted here]
light: EIVMTQSPLSSPVTLGQPASISCRSSQSLVHSDGNTYLSWLQQRPGQPPRLLIYKISNRFSGVPDRFSGSGAGTDFTLKISRVEAEDVGVYYCTQATQFPYTFGQGTKVDIKRTVAAPSVFIFPPSDEQLKSGTASVVCLLNNFYPREAKVQWKVDNALQSGNSQESVTEQDSKDSTYSLSSTLTLSKADYEKHKVYACEVTHQGLSSPVTKSFNRGEC

These molecules were tested on VSVAG expressing the spike protein of SARS-CoV-2.
Type: cell-based
In the case of B1, the “Fold Increase over Parental Antibody” value is reported as 2.2 fold.
For B2, the “Fold Increase over Parental Antibody” value was 2.5 fold.
In the case of B3, the “Fold Increase over Parental Antibody” value is reported as 2.8 fold.
